This test deals with Plasmodium falciparum NF54 stage V gametocytes. The test is described as follows: viability index relative to DMSO control (fraction); higher = less gametocyte killing. As to conditions: 2.5 µM, library set: Broad Institute DOS, incubation time: 72 h. Summed up: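 Compound at 2.5 µM was incubated for 72 hr at 37°C under low oxygen with P. falciparum NF54 stage V gametocytes (0.75% gametocytemia, 1.25% hematocrit, 10 µl, serum-free screening medium) in 1,536-well plates. Staining used 3 µl of 2.5 µM MitoTracker Red CMXRos plus 0.13% saponin for one to two hours, and red particles of 20–70 µm2 were counted in one imaged field per well. Each viability index is that count relative to the plate mean of solvent-only wells.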

Structures are written as SMILES. ± gives the uncertainty stated by the source. The full ranking holds about 9,900 compounds; the median of “viability index relative to DMSO control” is about 1, and the lowest 2% start at about 0.85. The list shows a part of the results.

On to `COC(=O)C[C@H]1C[C@H]2c3cc(NC(=O)C4CCOCC4)ccc3O[C@H]2[C@H](CO)O1`, for which the viability index came to 1.07 ± 0.026.
For `C[C@@H]1CN([C@@H](C)CO)C(=O)Cc2cc(NS(=O)(=O)c3ccc(Cl)cc3)ccc2O[C@H]1CN(C)C(=O)Nc1ccc(C(F)(F)F)cc1` the value was 0.909 ± 0.028.
Regarding `O=C(C1CCOCC1)N1C[C@@H]2[C@H](c3ccccc31)[C@@H](CO)N2C(=O)Cc1ccccn1`, the viability index worked out at 1.06 ± 0.053.
For `O=C(NCC[C@H]1CC[C@H](NS(=O)(=O)Cc2ccccc2)[C@H](CO)O1)C1CCCCC1` the value was 0.997 ± 0.084.
In the case of `C[C@@H]1CCCCO[C@@H](CN(C)C(=O)CCCN(C)C)[C@@H](C)CN([C@H](C)CO)C(=O)c2cc(NC(=O)Nc3ccc4c(c3)OCO4)ccc2O1`, the viability index was 1.055 ± 0.007.
Consider `C[C@@H]1CN([C@H](C)CO)C(=O)c2cccc(NC(=O)NC3CCCCC3)c2O[C@H]1CN(C)Cc1ccc(C(F)(F)F)cc1`, for which the viability index was determined as 1.01 ± 0.083.
`C[C@@H]1CN([C@@H](C)CO)C(=O)c2c(c3ccccc3n2C)-c2ccccc2CO[C@H]1CN(C)C(=O)[C@H](Cc1ccccc1)N(C)C` returned a viability index of 1.05 ± 0.046.
Take `C[C@@H]1CN([C@H](C)CO)C(=O)CCCn2nncc2CO[C@H]1CN(C)C(=O)Nc1ccccc1C(F)(F)F`: the viability index was determined as 0.9587 ± 0.0074.
With `CO[C@@H]1CN(C)C(=O)c2cc(NC(=O)Nc3c(C)noc3C)ccc2OC[C@@H](C)NC[C@@H]1C`, the viability index was determined as 0.953 ± 0.054.
For `C/C=C/c1ccccc1[C@H]1[C@H](C#N)N(C(=O)CN2CCOCC2)[C@H]1CO` the value was 1.08 ± 0.06; for `CN1CCN(C(=O)C[C@H]2CC[C@H]3[C@H](COc4ccc(NC(=O)C5CCOCC5)cc4C(=O)N3C)O2)CC1`, 1.11 ± 0.069.
For the compound `O=C(C[C@@H]1C[C@H]2c3cc(NC(=O)NC4CCCC4)ccc3O[C@H]2[C@H](CO)O1)NCc1ccccc1F`, the viability index stood at 1.04 ± 0.11.
Take `OC[C@@H]1[C@@H](c2ccc(-c3cccnc3)cc2)[C@H]2CN(Cc3ccccn3)CCCCN12`: the viability index worked out at 1.07 ± 0.051.
For `C/C=C/c1ccc([C@@H]2[C@H](CO)N[C@H]2CN(C(=O)c2ccccc2F)C(C)C)cc1`, the viability index amounted to 1.01 ± 0.047.
In the case of `COc1ccc2c3c([C@H](CO)N(Cc4ccc(Cl)cc4)C[C@]33CN(C3)C(=O)NC(C)C)n(C)c2c1`, the viability index is 1.03 ± 0.11.
With `Cc1noc(C)c1S(=O)(=O)N1[C@@H]2CNC[C@H]1[C@H]2c1ccc(-c2cccc(F)c2)cc1`, the viability index came to 1.09 ± 0.1.
For `O=C(Nc1ccccc1F)N[C@@H]1CC[C@@H](CCNC(=O)C2CC2)O[C@@H]1CO` the value was 1.17 ± 0.11; for `COc1ccc2c3c([C@H](CO)N(Cc4ccccc4)C[C@]33CN(C3)S(=O)(=O)c3ccc(C)cc3)n(C)c2c1`, 0.921 ± 0.08; for `CCC(=O)N1[C@H](CO)[C@@H](c2ccccc2)[C@H]1CN(C)C(=O)CN1CCOCC1`, 1.05 ± 0.053.
The compound `CCc1cnc(N2[C@H](CO)[C@H](c3ccccc3-c3ccccc3C)[C@@H]2C#N)s1` displayed a viability index of 1.12 ± 0.1.
With `O=C1CCCCn2cc(nn2)COC[C@@H](Cc2ccccc2)N1` the figure was 1.13 ± 0.074; with `COc1cccc(CNC(=O)[C@H]2[C@H](CO)[C@H]3Cn4c(ccc(C5=CCCC5)c4=O)[C@@H]2N3)c1`, 1.0533 ± 0.00074; with `CCS(=O)(=O)N1CC(=O)N2[C@H](CO)[C@@H](c3ccc(-c4cccc(F)c4)cc3)[C@@H]2C1`, 1.076 ± 0.0055.
As to `N#C[C@H]1[C@H](c2ccccc2-c2cccc(F)c2)[C@@H](CO)N1C(=O)NC1CCCCC1`, the viability index turned out to be 1.03 ± 0.19.
Take `C[C@@H]1CN([C@H](C)CO)C(=O)c2cc(-c3ccncc3)cnc2O[C@H]1CN(C)C(=O)CN1CCOCC1`: the viability index amounted to 1.03 ± 0.054.
`C[C@H](CO)N1C[C@H](C)[C@H](CN(C)CC2CCCCC2)Oc2ccc(NS(=O)(=O)c3cccs3)cc2CC1=O` returned a viability index of 1.09 ± 0.025.
With `O=C(C[C@H]1C[C@H]2c3cc(NC(=O)NC4CCCC4)ccc3O[C@H]2[C@H](CO)O1)NCc1ccccc1F` the figure was 1.09 ± 0.089.
`O=C1CNC[C@H]2[C@@H](c3ccc(C#CC4CCCCC4)cc3)[C@H](CO)N12` had a viability index of 1.09 ± 0.058.
For `CC(C)[C@@H]1C/C=C/C[C@H](C)Oc2ccccc2C(=O)N(C)[C@@H](Cc2ccccc2)C(=O)N1.CC(C)[C@@H]1C/C=C\C[C@H](C)Oc2ccccc2C(=O)N(C)[C@@H](Cc2ccccc2)C(=O)N1`, the viability index is 1.01 ± 0.047.
For `COc1ccc(CNC(=O)C[C@H]2C[C@H]3c4cc(N(C)C)ccc4O[C@H]3[C@H](CO)O2)cc1` the value was 1.09 ± 0.077; for `CC(C)[C@@H]1COCc2cn(nn2)CCCCC(=O)N1`, 1.068 ± 0.0061.
Consider `CCS(=O)(=O)N1C[C@@]2(C1)CN(Cc1cc(F)ccc1F)[C@H](CO)c1c2c2ccc(OC)cc2n1C`, for which the viability index came out at 0.973 ± 0.029.
With `C[C@@H]1CN([C@H](C)CO)C(=O)c2cccc(NC(=O)Nc3ccc(F)cc3)c2O[C@H]1CN(C)S(=O)(=O)c1ccc(Cl)cc1`, the viability index is 0.92 ± 0.22.
As for `C[C@H](CO)N1C[C@H](C)[C@@H](CN(C)S(=O)(=O)c2ccc(Cl)cc2)OCCCC[C@H](C)Oc2ccc(NC(=O)Nc3ccc(C(F)(F)F)cc3)cc2C1=O`, the viability index is 1.1 ± 0.11.
Turning to `Cc1ccccc1S(=O)(=O)N1[C@H](CO)[C@@H](c2ccc(C#CC3CC3)cc2)[C@@H]1C#N`, the viability index came out at 0.916 ± 0.12.

The values are drawn from the supplement of paper PMC4723716.
